# Experimental data taken from PubChem BioAssay AID1468 (National Center for Advancing Translational Sciences (NCATS), 2008).
# Where “and” joins values, the source holds several entries; their conditions need not be identical. Equal entries are not always repeated. The whole screen tested about 280,000 compounds, of which about 1,100 (0.39%) were called active. Inconclusive means that the source gave no clear call. Such entries were picked first, then a sample of the others. Calls follow the shape of the dose curve; as a rule, active = well fitted inhibition curve with a large enough effect; inconclusive = small, poorly fitted or top-dose-only effect, or effect the other way; inactive = flat fitted curve, though single readings scatter. A potency beside an inconclusive call is a rough fit, not a confirmed value.
# Biological target: Microtubule-associated protein tau (Homo sapiens) (UniProt P10636)
# Test: qHTS for Inhibitors of Tau Fibril Formation, Fluorescence Polarization; also: nearly all actives have a fitted effect of over 55% in size
# Details: K18 P301L tau heparin fibrillization, Alexa594 FP, 6 h; series mostly up to 57.7 µM; activity, negative = inhibition: at the top concentration
# Summary of the method: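 FP of Alexa 594-tau after heparin (20 uM) induction. Substrate: human K18 P301L, 15 uM unlabeled, 0.24 uM labeled. Buffer 100 mM sodium acetate pH 7. 6 hr, 37 C.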
# % is scaled to controls: 0 for no effect and ±100 for the full control effect; potency is read from the fitted curve at half-maximal effect; tags tell the direction and shape of the fitted curve.
# Chain of UniProt P10636 (P10636 whole entry, looked up): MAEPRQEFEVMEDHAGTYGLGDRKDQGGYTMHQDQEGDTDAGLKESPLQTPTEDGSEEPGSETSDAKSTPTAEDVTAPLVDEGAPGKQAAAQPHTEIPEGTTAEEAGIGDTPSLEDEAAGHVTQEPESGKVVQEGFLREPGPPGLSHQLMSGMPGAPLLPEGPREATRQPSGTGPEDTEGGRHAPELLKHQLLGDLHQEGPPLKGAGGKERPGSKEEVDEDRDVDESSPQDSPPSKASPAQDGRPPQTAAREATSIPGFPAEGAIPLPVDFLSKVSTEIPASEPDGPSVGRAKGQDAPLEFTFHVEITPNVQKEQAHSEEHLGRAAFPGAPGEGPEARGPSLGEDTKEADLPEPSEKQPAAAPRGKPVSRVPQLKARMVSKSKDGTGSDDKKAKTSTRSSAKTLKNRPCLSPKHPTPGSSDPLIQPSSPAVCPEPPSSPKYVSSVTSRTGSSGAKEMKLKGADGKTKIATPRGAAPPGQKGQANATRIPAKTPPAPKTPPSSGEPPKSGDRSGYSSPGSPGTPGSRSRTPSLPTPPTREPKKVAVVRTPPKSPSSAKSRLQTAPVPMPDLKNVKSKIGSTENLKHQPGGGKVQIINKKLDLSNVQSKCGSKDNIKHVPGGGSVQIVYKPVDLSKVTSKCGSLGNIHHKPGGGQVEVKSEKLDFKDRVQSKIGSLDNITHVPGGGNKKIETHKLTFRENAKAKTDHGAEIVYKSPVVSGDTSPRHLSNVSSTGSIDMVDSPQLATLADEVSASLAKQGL
SMILES,Potency,"activity, negative = inhibition"
Cc1ccc(C)c(NC(=O)CSc2nc(=O)n(CCN(C)C)c3c2CCC3)c1,"inconclusive: 5.01 µM [inhibitor, full curve, poor fit]",
COc1ccc(C(=O)N2CCN(c3nnnn3-c3ccccc3)CC2)cc1OC,,inactive: 5.1%
Cc1cc(C(=O)NP(=O)(N2CCOCC2)N2CCOCC2)c(C)n1-c1ccc(Br)cc1,,inactive: 2.16%
CC(C)c1ccc(NC(=O)CSC2=Nc3ccccc3C3=NC(CC(=O)NCc4ccc(F)cc4)C(=O)N23)cc1 (stereo unspecified),,inactive: -1.22%
CCCOC1OC(=O)c2c1ccc(OC)c2OC (stereo unspecified),"inconclusive: 0.398 µM [inhibitor, full curve, poor fit]",
Cc1ccc(-n2c(=O)c3cccnc3n2CC(=O)Nc2cccc(C)c2C)cc1,,inactive: -7.2%
COc1cc(/C=N/N=C2/C(=O)Nc3ccccc32)cc(OC)c1O,"inconclusive: 25.1 µM [inhibitor, partial curve]",
CCOC(=O)N1CCN(C(=O)c2ccc3c(=O)n(Cc4ccccc4)c(=S)[nH]c3c2)CC1,,inactive: -3.08%
COCCNc1nc2nonc2nc1N1CCCC1c1nccs1 (stereo unspecified),"inconclusive: 14.1 µM [inhibitor, partial curve]",
CN(C)CCOC(=O)NCC12CC3CC(CC(C3)C1)C2,"inconclusive: 0.0794 µM [activator, partial curve]",
CCn1c(C)nc2cc(C(=O)NNC(=O)Nc3ccc(Cl)c(Cl)c3)ccc21,"inconclusive: 7.94 µM [inhibitor, full curve]",
O=C(OCc1cccs1)c1ccccc1NS(=O)(=O)c1ccc2c(c1)OCCO2,"inconclusive: 20 µM [inhibitor, single point]",
COc1ccccc1C1C(C#N)=C(N)Oc2cc(C)n(CCCn3ccnc3)c(=O)c21 (stereo unspecified),"inconclusive: 31.6 µM [inhibitor, single point]",
CCC(=O)Nc1ccc(NC(=O)/C=C/c2ccc(Cl)cc2)cc1,,inactive: -13.4%
C(=N\Nc1nc(-c2ccccc2)cs1)/c1ccco1,"inconclusive: 7.94 µM [activator, single point]",
CC(C)(C)C(=O)Cn1c(=O)n(CCCCCC(=O)NCc2ccc3c(c2)OCO3)c(=O)c2sccc21,,inactive: -11.1%
COc1ccc(CCNC(=O)c2cc(C(=O)c3cc(Cl)ccc3O)cn(CCc3ccc(OC)cc3)c2=O)cc1,"inconclusive: 28.2 µM [inhibitor, single point]",
CSc1cccc(NC(=O)NCc2cccc(CNC(=O)Nc3cccc(SC)c3)c2)c1,"inconclusive: 17.8 µM [inhibitor, partial curve]",
COc1ccccc1CCNC(=O)c1ccc(NC(=O)N2CC(C)Sc3ccccc32)cc1 (stereo unspecified),"inconclusive: 35.5 µM [inhibitor, single point]",
CCCCn1cc(S(=O)(=O)c2ccc(CC)cc2)c(=O)c2cc(F)c(N3CCCC(C)C3)cc21 (stereo unspecified),,inactive: -5.61%
Cc1ccc(S(=O)(=O)N(C)Cc2ccc(-c3nnco3)cc2)cc1,"inconclusive: 44.7 µM [inhibitor, single point]",
O=C(Nc1cc(S(=O)(=O)Nc2ccc(Cl)cc2)ccc1O)c1ccc(S(=O)(=O)N2CCCCCC2)cc1,"inconclusive: 10 µM [inhibitor, partial curve]",

SMILES,Potency,"activity, negative = inhibition"
Cc1cccc(OCc2nnc(SCC(=O)Nc3ccc(C)c(Cl)c3)o2)c1,"inconclusive: 8.91 µM [inhibitor, partial curve, poor fit]",
COC(=O)C(Nc1ccccc1Cl)(c1cc(C)c(O)c(C)c1)C(F)(F)F (stereo unspecified),"inconclusive: 39.8 µM [inhibitor, single point]",
CCOc1ccccc1-c1cc(C(=O)N/N=C/c2ccc3c(c2)OCO3)c2ccccc2n1,"inconclusive: 44.7 µM [inhibitor, single point]",
O=C(Cn1ncc2c([nH]c3ccccc32)c1=O)Nc1cc(F)ccc1F,"inconclusive: 39.8 µM [inhibitor, single point]",
O=C(N/N=C1\CC2CC=CC12)c1ccc(O)cc1 (stereo unspecified),"inconclusive: 7.08 µM [inhibitor, single point]",
CC(=NCCc1c(C)[nH]c2ccc(C)cc12)C1=C(O)CC(c2ccccc2)CC1=O (stereo unspecified),"inconclusive: 10 µM [activator, partial curve, poor fit]",
COc1ccc(C(=O)N(Cc2sccc2C)C2CCS(=O)(=O)C2)cc1Cl (stereo unspecified),,inactive: -9.06%
Cc1cc(=O)n2c(C(=O)Nc3ccc(C)c(Cl)c3)c(C(=O)Nc3ccccc3)sc2n1,,inactive: -15.7%
COc1ccc(Cl)cc1NC(=O)Cn1nnc2sc3c(c2c1=O)CCC(C(C)(C)C)C3 (stereo unspecified),"inconclusive: 11.2 µM [inhibitor, partial curve]",
COc1c(Cl)cc(C(=O)Nc2cccc(-c3nc4ccccc4[nH]3)c2)cc1Cl,active: 22.4 µM,
O=C(COC(=O)CNS(=O)(=O)/C=C/c1ccccc1)Nc1cc(S(=O)(=O)N2CCCCC2)ccc1Cl,,inactive: -8.61%
Cc1ccccc1NC(=S)N(CCCN1CCOCC1)Cc1ccccn1,"inconclusive: 25.1 µM [activator, single point]",
CN(/N=C/c1ccc2c(c1)OCO2)c1ccccc1,"inconclusive: 20 µM [activator, single point]",
CC1=CC(=O)C=C(C)C1=NOS(=O)(=O)c1ccccc1,"inconclusive: 15.8 µM [inhibitor, partial curve]",
CC(=O)Nc1nonc1-c1nnc(SCc2ccccc2C)n1C,,inactive: 0.375%
CC1(C(=O)CSc2nc3ccccc3s2)CCC(=O)O1 (stereo unspecified),"inconclusive: 28.2 µM [inhibitor, single point]",
CCOC(=O)Cc1csc(NC(=S)NC(=O)c2ccc(C)cc2)n1,"inconclusive: 28.2 µM [inhibitor, partial curve, poor fit]",
O=C(c1ccc(Cl)cc1)N1CCCCC1CCN1CCOCC1 (stereo unspecified),,inactive: -1.08%
Cc1ccccc1C(=O)N/N=C/c1ccsc1C,,inactive: -5.18%
Cn1c(=O)c(C(=O)COC(=O)c2cc(C(F)(F)F)nc3ccccc23)c(N)n(Cc2ccccc2)c1=O,"inconclusive: 12.6 µM [inhibitor, partial curve] and inconclusive: 8.91 µM [inhibitor, full curve]",
COc1ccc(CC(=O)NC(C)c2nnc(SCCC(=O)Nc3ccccc3)n2C)cc1 (stereo unspecified),"inconclusive: 0.112 µM [inhibitor, full curve, poor fit]",
O=C(Nc1cccc(Cl)c1Cl)c1cc(S(=O)(=O)N2CCC3(CC2)OCCO3)ccc1F,"inconclusive: 39.8 µM [inhibitor, single point]",

SMILES,Potency,"activity, negative = inhibition"
Cc1cccc(NC2=C(C#N)C(=O)NC3(CCCC3)S2)c1,"inconclusive: 28.2 µM [inhibitor, partial curve]",
CC(C)(Sc1cc(C(C)(C)C)c(O)c(C(C)(C)C)c1)Sc1cc(C(C)(C)C)c(O)c(C(C)(C)C)c1,"inconclusive: 10 µM [inhibitor, partial curve] and inconclusive: 7.08 µM [inhibitor, full curve, poor fit]",
CN(C)c1ccc(C=C2C(=O)OC(C)(C)OC2=O)cc1,,inactive: 8.83%
CC(C)(C)OC(=O)NCCCCC1=CC2=CC(=O)C(C)(OC(=O)CCc3ccccc3)C(=O)C2=CO1 (stereo unspecified),,inactive: 1.49%
CCc1nnc(NS(=O)(=O)c2ccc(NC(=S)NC(=O)/C=C/c3ccccc3)cc2)s1,,inactive: 4.08%
Cc1ccc(C(=O)c2nocc2C(=O)c2cccs2)cc1,,inactive: -7.36%
Clc1ccc(C2=NNC(=NCc3ccc4c(c3)OCO4)SC2)cc1,,inactive: -3.64%
COCCN1C=C2C(=O)C(C)(OC(=O)c3cccs3)C(=O)C=C2C=C1CCCC(=O)OC (stereo unspecified),"inconclusive: 12.6 µM [inhibitor, partial curve]",
COc1ccccc1NC(=O)c1oc2ccccc2c1NC(=O)c1c(F)cccc1F,,inactive: -4.24%
Cn1cc(CCNC(=O)CC2C(=O)NCCN2Cc2cccc(Oc3ccccc3)c2)cn1 (stereo unspecified),,inactive: -4.21%
C[C@@H](c1ccccc1)N1C(=O)[C@H]2[C@H]3[C@H](O)[C@H](O)C/C(=N/OCc4ccccc4)[C@H]3CC[C@@H]2C1=O,,inactive: -11.1% [at 11.6 µM]
Fc1cccc(Cn2ccc(-c3ccc4c(c3)OCO4)n2)c1,"inconclusive: 39.8 µM [inhibitor, single point]",
CCOC(=O)c1ccc(NC(=O)c2ccc3c(c2)c(C)c(C)n3Cc2ccc(F)cc2)cc1,"inconclusive: 31.6 µM [inhibitor, single point]",
CCOC(=O)N1CCC(NC(=O)c2ccc3c(c2)N(Cc2ccccc2)CCS3)CC1,"inconclusive: 10 µM [activator, partial curve]",
CC(C)(C)c1ccc(/C=N/NC(=S)NCc2ccccc2)cc1,"inconclusive: 39.8 µM [inhibitor, single point]",
O=C(CSc1ncnc2sc3c(c12)CCCCC3)NCc1ccco1,,inactive: 4.85%
O=C(Nc1nc(SCc2ccc(F)cc2)ns1)c1ccco1,"inconclusive: 3.55 µM [inhibitor, single point]",
Cc1nc2ccccc2nc(C)c1=NO,"inconclusive: 44.7 µM [inhibitor, partial curve, poor fit]",
Cc1cc(NC(=O)c2c(F)cccc2Cl)n(-c2nc3ccccc3[nH]2)n1,"inconclusive: 31.6 µM [inhibitor, partial curve]",
Cc1cc2c3c(c1)C(C)(c1ccccc1)CC(C)(C)N3C(=O)C21C(C#N)=C(N)OC2=C1C(=O)CC(C)(C)C2 (stereo unspecified),,inactive: 12.7%
CCOC(=O)c1c(C)[nH]c(C)c1C(=O)COc1ncnc2ccccc12,,inactive: -4.22%
COc1ccccc1/C=C/C(=O)OCC(=O)Nc1cc(C(F)(F)F)ccc1N1CCOCC1,"inconclusive: 11.2 µM [inhibitor, partial curve]",
